# In PubChem BioAssay AID1479 (National Center for Advancing Translational Sciences (NCATS), 2009):
# Out of some 280,000 compounds screened, about 820 (0.29%) were called active. The inconclusive results got no clear call from the source; some entries with a clear call stand among them for comparison. Calls follow the shape of the dose curve; as a rule, active = well fitted curve in either direction with a large enough effect; inconclusive = small, poorly fitted or top-dose-only effect; inactive = flat fitted curve, though single readings scatter. Potencies of inconclusive entries are left out as doubtful fits.
# Test: Total Fluorescence Counterscreen for Inhibitors of the Interaction of Thyroid Hormone Receptor and Steroid Receptor Coregulator 2
# Conditions: TRb/SRC2 Texas Red total fluorescence interference; series mostly up to 106 µM
# Procedure, shortened: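 Human TRb ligand-binding domain at 0.6 uM with 20 nM Texas Red SRC2 peptide in Tris buffer containing 1 uM T3 and 5% DMSO, incubated with compound 5 h at ambient temperature. Total fluorescence (555/632 nm) calculated as parallel + 2 × perpendicular.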
# Potency is read from the fitted curve at half-maximal effect; tags tell the direction and shape of the fitted curve or compound fluorescence and quenching.
row,SMILES,Potency
1,CCN(CC)S(=O)(=O)c1ccc(NS(=O)(=O)c2ccc(O)c([N+](=O)[O-])c2)cc1,inactive
2,Fc1ccccc1CSc1nnc(-c2cnccn2)n1Cc1ccco1,inactive
3,Cc1oc2ncn(CC(C)C)c(=O)c2c1C(=O)NCCCN(Cc1ccccc1)C(C)C,"inconclusive [falling, full curve, poor fit]"
4,Nc1c(C(=O)Nc2ccc(Br)cc2)sc2nc(-c3ccco3)ccc12,"inconclusive [quencher, partial curve]"
5,Cc1ccc(Cn2c(CNC(=O)c3ccccc3Br)nc3cccnc32)cc1,active: 0.01 µM [quencher]
6,CNC(=O)COc1ccc(Nc2nnc(-c3ccc(C)c(S(=O)(=O)NC(C)(C)C)c3)c3ccccc23)cc1,active: 0.199 µM [quencher]
7,Cn1c(CCNC(=O)c2ccco2)nc2cc(NC(=O)COc3ccc(Cl)cc3)ccc21,"inconclusive [falling, full curve, poor fit]"
8,CCOc1ccccc1C(=O)NN1C(=O)CCC1=O,inactive
9,CCc1cc2c(N=Nc3c(O)[nH]c4ccccc34)ncnc2s1,inactive
10,CC(=O)c1cc(C)oc1C,inactive
11,Cc1cc(C(F)F)n2nc(C(=O)Nc3ccc(F)c(Cl)c3)nc2n1,"inconclusive [falling, full curve, poor fit]"
12,Cc1cccc([C@H]2[C@@H]3C=CCC[C@@H]3C(=O)N2Cc2ccccc2)c1,"inconclusive [falling, full curve, poor fit]"
13,O=C(Nc1ccc(SC(F)F)cc1)c1cccc2nc3ccccc3nc12,"inconclusive [fluorescent, partial curve]"
14,Cn1c(COc2ccc(Br)cc2)nnc1SC1CCc2ccccc2C1=O (stereo not drawn),"inconclusive [falling, full curve, poor fit]"
15,COc1ccc(NC(=O)Cn2c(SCc3ccc(C)cc3)nc3cccnc32)c(OC)c1,"inconclusive [quencher, full curve]"
16,CCN(CC)C(=O)Oc1ccc(Cl)c2cccnc12,inactive
17,N#CC1=C(N)N(c2ccc(F)cc2)C2=C(C1c1ccc(O)cc1)S(=O)(=O)CC2 (stereo not drawn),active: 44.7 µM [fluorescent]
18,CCS(=O)(=O)CCSc1nc(-c2ccc(Br)cc2)cc(-c2ccccc2)c1C#N,"inconclusive [falling, full curve, poor fit]"
19,COC(=O)c1c(NC(=O)COc2cc(C)ccc2C(C)C)sc2c1CCC(C)C2 (stereo not drawn),"inconclusive [falling, full curve, poor fit]"
20,O=C(c1ccc(Cl)c(Cl)c1)c1cnc(Nc2ccccc2)s1,inactive
21,Cc1ccc(Cl)cc1N1CCN(S(=O)(=O)c2cc3[nH]c(=O)c(=O)[nH]c3cc2C)CC1,"inconclusive [quencher, full curve]"
22,CC(C)c1ccc2nc3sc(C(=O)N4CCc5ccccc5C4)c(N)c3cc2c1,inactive

row,SMILES,Potency
1,CCc1ccccc1NC(=O)COc1ccc2c(=O)c(Oc3cc(C)ccc3C)coc2c1,"inconclusive [quencher, partial curve]"
2,Cc1ccc(N(C)C(=O)C2CCCN(c3ncnc4c3nc3n4CCCCC3)C2)cc1C (stereo not drawn),active: 20 µM [quencher]
3,O=C(CN1CCN(c2ccc(F)cc2)CC1)NCC1CCCO1 (stereo not drawn),inactive
4,COc1ccc(/C=c2\s/c(=C/C(=O)c3ccc(C)cc3)[nH]c2=O)c(OC)c1,"inconclusive [falling, partial curve, poor fit]"
5,Cc1ccc(N2CCN(S(=O)(=O)c3ccc4[nH]c5c(c4c3)CCCCC5)CC2)c(C)c1,"inconclusive [falling, full curve, poor fit]"
6,N#Cc1ccccc1NC(=O)CSc1nnc(N)s1,"inconclusive [falling, full curve, poor fit]"
7,COC(=O)c1cc2occc2n1CC(=O)Nc1ccc(C(C)C)cc1,"inconclusive [falling, full curve, poor fit]"
8,COC(=O)c1cc(NC(=O)c2ccc3c(c2)NC(=O)c2ccccc2S3)cc(C(=O)OC)c1,"inconclusive [falling, full curve, poor fit]"
9,Cc1ccccc1NC(=O)CSc1nnc(-c2cccs2)o1,"inconclusive [falling, full curve, poor fit]"
10,CCOCCCNC(=O)c1c(NC(=O)Cc2coc3ccc(C)cc23)sc2c1CCC2,active: 35.5 µM [quencher]
11,CC1CCC(C(=O)O)NC1c1cccc(N2CCCC2=O)c1 (stereo not drawn),"inconclusive [quencher, full curve]"
12,O=C(N/N=C/c1ccc([N+](=O)[O-])s1)c1cccc(Br)c1,"inconclusive [quencher, partial curve]"
13,O=C(NCCCO)Nc1ccc2nc(-c3ccco3)c(-c3ccco3)nc2c1,active: 14.1 µM [quencher]
14,Cc1ccccc1NC(=O)c1ccc(Cl)c(S(=O)(=O)N2CCCCCC2)c1,active: 0.794 µM [quencher]
15,Cc1cc(N/N=C/c2ccc(O)c(C)c2O)nc(-c2ccccc2O)n1,"inconclusive [falling, full curve, poor fit]"
16,COc1ccc(NC(=O)CSc2nccn2Cc2ccco2)c(OC)c1,"inconclusive [quencher, full curve]"
17,COc1ccc2nc(-c3ccccc3)[nH]c2c1,inactive
18,Cc1cccc2sc(N(CCCN(C)C)C(=O)COc3ccccc3)nc12,"inconclusive [quencher, full curve]"
19,CCOc1ccc(N(CC)S(=O)(=O)N2CCCC(C(=O)NCCc3ccc(OC)cc3)C2)cc1 (stereo not drawn),"inconclusive [quencher, full curve]"
20,CC1CCN(S(=O)(=O)c2nnc(NC(=O)c3cccc(F)c3)s2)CC1,"inconclusive [quencher, partial curve]"
21,O=C(c1ccc(CS(=O)(=O)c2c(Cl)cccc2Cl)o1)N1CCN(c2ccccc2)CC1,active: 6.31 µM [quencher]
